# Measurements taken from article PMC7139218, “Structural Basis for Rab8a Recruitment of RILPL2 via LRRK2 Phosphorylation of Switch 2” (Structure(London, England:1993), 2020).
# Protein sequences, listed by entry. Tags and fused reporters are not part of them.
# UniProt P61006: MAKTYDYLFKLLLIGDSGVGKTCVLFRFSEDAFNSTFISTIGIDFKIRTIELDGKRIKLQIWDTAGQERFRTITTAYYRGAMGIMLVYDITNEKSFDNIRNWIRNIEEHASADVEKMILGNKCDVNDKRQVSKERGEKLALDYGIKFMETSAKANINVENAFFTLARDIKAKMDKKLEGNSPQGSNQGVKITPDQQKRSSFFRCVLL
# These are yes or no findings as the source states them, for the method shown. Binding seen in cells or lysates may run through a third protein. Some results given as binding are weak or reduced against the parent protein; the word gives no strength. Tags and fused reporters may be left off the sequences shown.
# Columns and labels:
# JIP4-GFP (full length) = molecular target: T1, JIP4-GFP (full length) (UniProt O60271); test: co-IP; HEK293 cells co-expressing Flag-LRRK2 (R1441G or Y1699C), HA-Rab and GFP-tagged effector, no MLi-2; GFP fusion precipitated with GFP binder Sepharose, 1 h, washed in 50 mM Tris-HCl pH 7.5, 150 mM NaCl; immunoblot
# T1 sequence: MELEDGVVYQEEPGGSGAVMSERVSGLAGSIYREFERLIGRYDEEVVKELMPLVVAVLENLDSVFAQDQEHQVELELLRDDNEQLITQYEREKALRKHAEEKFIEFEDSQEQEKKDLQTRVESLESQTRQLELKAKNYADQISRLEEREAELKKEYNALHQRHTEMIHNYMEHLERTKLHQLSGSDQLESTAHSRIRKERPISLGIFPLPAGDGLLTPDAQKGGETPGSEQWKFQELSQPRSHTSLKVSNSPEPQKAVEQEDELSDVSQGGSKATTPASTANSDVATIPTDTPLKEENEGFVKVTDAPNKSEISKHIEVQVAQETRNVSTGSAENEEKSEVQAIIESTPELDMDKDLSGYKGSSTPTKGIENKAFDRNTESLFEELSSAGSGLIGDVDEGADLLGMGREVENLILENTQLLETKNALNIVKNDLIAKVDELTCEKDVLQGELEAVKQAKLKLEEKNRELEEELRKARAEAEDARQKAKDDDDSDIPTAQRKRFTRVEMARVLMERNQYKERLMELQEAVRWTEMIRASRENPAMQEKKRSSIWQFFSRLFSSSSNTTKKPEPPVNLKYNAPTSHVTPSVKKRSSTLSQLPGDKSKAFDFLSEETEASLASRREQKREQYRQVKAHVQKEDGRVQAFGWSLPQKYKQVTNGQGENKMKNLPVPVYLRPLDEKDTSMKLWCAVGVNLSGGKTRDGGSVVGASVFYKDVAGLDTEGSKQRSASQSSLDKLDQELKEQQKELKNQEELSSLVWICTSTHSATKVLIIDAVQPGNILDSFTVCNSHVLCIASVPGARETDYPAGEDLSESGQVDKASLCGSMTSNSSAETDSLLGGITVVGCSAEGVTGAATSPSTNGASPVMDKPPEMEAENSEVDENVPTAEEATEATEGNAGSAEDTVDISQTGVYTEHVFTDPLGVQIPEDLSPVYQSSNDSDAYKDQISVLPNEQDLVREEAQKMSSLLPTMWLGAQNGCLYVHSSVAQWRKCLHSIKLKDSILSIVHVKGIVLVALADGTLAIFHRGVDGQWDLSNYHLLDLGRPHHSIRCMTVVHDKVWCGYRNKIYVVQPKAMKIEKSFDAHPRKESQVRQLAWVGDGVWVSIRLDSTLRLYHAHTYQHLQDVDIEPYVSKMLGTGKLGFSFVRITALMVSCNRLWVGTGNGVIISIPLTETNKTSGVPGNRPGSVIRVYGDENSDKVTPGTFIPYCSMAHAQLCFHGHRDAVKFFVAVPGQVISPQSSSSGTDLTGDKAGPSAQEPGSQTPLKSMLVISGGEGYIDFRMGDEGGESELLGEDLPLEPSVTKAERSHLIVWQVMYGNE
# RILPL2-GFP L135A (human) = molecular target: T2, RILPL2-GFP L135A (human) (UniProt Q969X0); test: as above
# T2 sequence: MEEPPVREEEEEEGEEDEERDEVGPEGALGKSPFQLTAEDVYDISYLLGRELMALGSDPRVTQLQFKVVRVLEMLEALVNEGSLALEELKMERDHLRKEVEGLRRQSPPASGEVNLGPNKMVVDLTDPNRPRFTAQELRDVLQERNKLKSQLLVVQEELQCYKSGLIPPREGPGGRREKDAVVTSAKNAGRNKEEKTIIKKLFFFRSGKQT
substance,measurement,setting,value
"HA-Rab8a WT, LRRK2-phosphorylated (pT72) (from UniProt P61006 1-207)",binding,JIP4-GFP (full length),binds weakly
same,binding,RILPL2-GFP L135A (human),binds
